{
  "source": "PubChem BioAssay AID2546",
  "about": "(National Center for Advancing Translational Sciences (NCATS), 2010)",
  "note": "Among all 310,000 compounds or so, about 11,000 (3.5%) were called active. Inconclusive means that the source gave no clear call. Such entries were picked first, then a sample of the others. The call rests on the fitted dose curve; in most records, active means well fitted inhibition curve with a large enough effect; inconclusive means small, poorly fitted or top-dose-only effect, or effect the other way; inactive means flat fitted curve, though single readings scatter. No potency is given beside an inconclusive call; the fits are too rough. On the % scale 0 is the no-effect control and ±100 the full control effect; potency means the concentration at half of the fitted maximal effect; tags describe the fitted curve by direction and shape.",
  "data": [
    {"experiment": "VP16 counterscreen qHTS for inhibitors of ROR gamma transcriptional activity;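 further: Gal4-VP16 expression switched on by copper sulfate through the metallothionein promoter; nearly all actives have a fitted effect of over 50% in size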", "details": "Drosophila S2 Gal4-VP16 UAS-luciferase, luminescence, 20 h; activity, negative = inhibition: at 53.6 µM (top of the series)", "values": [
      {"smiles": "Brc1ccc(-c2nnc(-c3ccc4c(c3)OCO4)o2)o1", "Potency": "inconclusive [inhibitor, single point]"},
      {"smiles": "Cc1cccnc1NC(=S)NCCc1ccccc1", "Potency": "active: 10 µM"},
      {"smiles": "CC1CCCN(CCCNC(=O)c2cc3c(s2)-c2ccccc2OC3)C1", "note": "(configuration not stated)", "activity, negative = inhibition": "inactive: -9.56%"},
      {"smiles": "c1ccc2c(c1)nnn2Cc1nnc2sc(-c3ccc4c(c3)OCCO4)nn12", "activity, negative = inhibition": "inactive: 1.34%"},
      {"smiles": "C(=N\\Nc1nc2ccccc2[nH]1)/C1CCCCC1", "Potency": "inconclusive [inhibitor, partial curve]"},
      {"smiles": "O=C(O)/C=C/C(=O)c1c(-c2ccccc2)[nH]c2ccccc12", "Potency": "inconclusive [inhibitor, partial curve]"},
      {"smiles": "COc1cc(/C=N/NC(=O)c2cccc([N+](=O)[O-])c2)ccc1OCc1ccccc1", "Potency": "inconclusive [inhibitor, single point]"},
      {"smiles": "O=C(Nc1ccc(Cl)cn1)c1ccc([N+](=O)[O-])o1", "Potency": "inconclusive [inhibitor, single point]"},
      {"smiles": "COc1ccc(-c2cc(C(F)(F)F)nc(S(C)(=O)=O)n2)cc1", "Potency": "active: 8.91 µM"},
      {"smiles": "CC(=O)N1CCC2(CCN(Cc3cc(C(F)(F)F)cc(C(F)(F)F)c3)CC2)CC1", "activity, negative = inhibition": "inactive: -5.67%"},
      {"smiles": "CC(OC(=O)CCc1nc2ccccc2c(=O)[nH]1)C(=O)NC1CCCC1", "note": "(configuration not stated)", "activity, negative = inhibition": "inactive: -5.22%"},
      {"smiles": "C=C1CCN(C(C(=O)NCc2ccc(Cl)c(Cl)c2)C(C)C)S(=O)(=O)c2ccccc21", "note": "(configuration not stated)", "activity, negative = inhibition": "inactive: -2.56%"},
      {"smiles": "CC(C)=CCc1c(O)cc2oc3c(CC=C(C)C)c(O)c(O)c(CC=C(C)C)c3c(=O)c2c1O", "Potency": "inconclusive [inhibitor, single point]"},
      {"smiles": "CC(C)OC(=O)Nc1ccc2nc(-c3cscn3)[nH]c2c1", "Potency": "inconclusive [inhibitor, single point]"},
      {"smiles": "CCCN1C(=O)c2cc(C(=O)Nc3ccc(OC)cc3OC)ccc2C1Nc1ccc(OC)cc1OC", "note": "(configuration not stated)", "activity, negative = inhibition": "inactive: -9.5%"},
      {"smiles": "O=C(CCC(=O)N1CCSc2ccccc21)NCc1cccc(Br)c1", "activity, negative = inhibition": "inactive: -7.7%"},
      {"smiles": "C/C=C(\\C)C(=O)NNC(=O)c1sc(-c2ccccc2)nc1C", "activity, negative = inhibition": "inactive: -12.6%"},
      {"smiles": "CCc1c(O)nc(SCC(=O)Nc2nc3ccccc3s2)n(-c2ccccc2)c1=O", "Potency": "inconclusive [inhibitor, single point]"},
      {"smiles": "Cc1ccc(S(=O)(=O)Nc2cccc3ncccc23)s1", "Potency": "active: 0.562 µM"},
      {"smiles": "CC(C)(C)C(=O)NC(=S)N1CCc2ccccc21", "Potency": "inconclusive [inhibitor, single point]"},
      {"smiles": "Nc1nc2ccccc2n1C(=O)c1ccco1", "Potency": "inconclusive [inhibitor, single point]"},
      {"smiles": "C=CCOC(=O)C(=O)/C=C/c1c(C)n(C)n(-c2ccccc2)c1=O", "activity, negative = inhibition": "inactive: -2.81%"}
    ]}
  ]
}
